PMC7316778 (Nature Communications, 2020)
“And” between values parts separate entries of the source, which are not always exact repeats. Equal entries are not always repeated. Where two headings read alike, the source gives them in different places.

Assays:
[1] = biological target: T1, kinase targets in FES^S700C HL-60 neutrophils (Homo sapiens, UniProt P57088); format: cell-based; details: Figure 7c; protein TMM33_HUMAN; 100 nM; listed as WEL028
T1 sequence (P57088 1-247): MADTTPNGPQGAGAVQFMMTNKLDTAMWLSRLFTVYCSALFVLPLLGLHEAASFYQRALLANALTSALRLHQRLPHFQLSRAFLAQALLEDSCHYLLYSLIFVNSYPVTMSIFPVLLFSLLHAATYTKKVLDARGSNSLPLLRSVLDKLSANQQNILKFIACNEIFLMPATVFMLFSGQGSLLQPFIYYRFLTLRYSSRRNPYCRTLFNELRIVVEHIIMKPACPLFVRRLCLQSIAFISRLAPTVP

[2] = biological target: T2, kinase targets in FES^S700C HL-60 neutrophils (Homo sapiens, UniProt P40925); format: cell-based; details: Figure 7c; protein MDHC_HUMAN; 100 nM; listed as WEL028
T2 sequence (P40925 1-334): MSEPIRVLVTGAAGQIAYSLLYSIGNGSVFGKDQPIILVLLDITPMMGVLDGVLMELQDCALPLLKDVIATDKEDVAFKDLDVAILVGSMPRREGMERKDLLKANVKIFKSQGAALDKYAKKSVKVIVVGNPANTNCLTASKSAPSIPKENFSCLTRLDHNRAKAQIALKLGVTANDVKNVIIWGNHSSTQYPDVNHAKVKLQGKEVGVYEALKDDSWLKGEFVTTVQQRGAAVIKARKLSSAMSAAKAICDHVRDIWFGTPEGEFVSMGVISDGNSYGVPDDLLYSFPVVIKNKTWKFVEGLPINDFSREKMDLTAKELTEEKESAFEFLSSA

[3] = biological target: T3, kinase targets in FES^S700C HL-60 neutrophils (Homo sapiens, UniProt Q04446); format: cell-based; details: protein GLGB_HUMAN; WEL028-treated replicates (c6-c9) vs vehicle replicates (c2-c5, mean 1); Fig. 7 source data
T3 sequence (Q04446 1-702): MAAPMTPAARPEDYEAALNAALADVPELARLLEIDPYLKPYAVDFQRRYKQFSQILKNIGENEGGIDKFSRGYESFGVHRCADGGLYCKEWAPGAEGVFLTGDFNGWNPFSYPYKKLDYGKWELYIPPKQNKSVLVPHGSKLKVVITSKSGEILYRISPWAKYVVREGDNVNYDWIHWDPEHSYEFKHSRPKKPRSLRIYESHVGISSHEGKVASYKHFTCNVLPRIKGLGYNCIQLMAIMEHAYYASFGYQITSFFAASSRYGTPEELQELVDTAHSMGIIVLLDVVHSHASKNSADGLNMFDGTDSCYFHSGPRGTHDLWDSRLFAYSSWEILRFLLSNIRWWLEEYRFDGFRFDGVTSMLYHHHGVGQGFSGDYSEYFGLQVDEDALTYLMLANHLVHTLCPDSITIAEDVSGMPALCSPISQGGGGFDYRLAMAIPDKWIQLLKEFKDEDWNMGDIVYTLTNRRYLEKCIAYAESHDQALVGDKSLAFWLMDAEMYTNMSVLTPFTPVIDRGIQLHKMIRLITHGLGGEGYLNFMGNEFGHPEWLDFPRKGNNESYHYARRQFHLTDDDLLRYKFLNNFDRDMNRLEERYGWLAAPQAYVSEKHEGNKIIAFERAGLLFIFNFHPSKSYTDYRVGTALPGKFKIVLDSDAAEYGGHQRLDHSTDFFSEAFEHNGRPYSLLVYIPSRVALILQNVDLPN

[4] = system: SYK Y352, HS1 Y397 and PLCγ2 Y1217 phosphorylation in FES^S700C HL-60 neutrophils; assay: Neutrophil stimulation and phosphoprotein analysis; format: cell-based, human; details: WEL028 100 nM, 1 h; E. coli MOI 30, 2 min
Method: HL-60 neutrophils were infected as described above, but in 1.5 mL tubes (5 × 10^6 cells per sample, in 1 mL growth medium without antibiotics, supplemented with FcR blocking reagent (1:25)). After indicated infection times, suspensions were immediately centrifuged (2000g, 2 min, 4 °C). Supernatant was completely aspirated and cells were washed (1 mL cold PBS, 2000g, 2 min, 4 °C). Pellets were thoroughly resuspended in 1× Laemmli sample buffer (75 µL), followed by incubation at 95 °C (15 min, 1400 rpm) and brief sonication to reduce sample viscosity. Samples were stored at −20 °C or immediately resolved by SDS-PAGE.

[5] = system: kinase targets in WT HL-60 cells; details: Figure 6g
[6] = biological target: kinase targets in WT HL-60 neutrophils (Homo sapiens, UniProt P35609); details: protein ACTN2_HUMAN; 100 nM; q-value 0.740; listed as WEL028
[7] = biological target: kinase targets in WT HL-60 neutrophils (Homo sapiens, UniProt P0CG39); details: protein POTEJ_HUMAN; 100 nM; q-value 0.001

**Q.** `C#CCOc1ccc(Nc2ncc(Cl)c(Nc3ccccc3NC(=O)C=C)n2)c(OC)c1` [Compound 6] was tested. Which “Fold enrichment over vehicle” value [1] did it give?
**A.** 1.041 and 0.796 and 1.073

**Q.** What about the “Fold enrichment over vehicle” value [2] of the same molecule?
**A.** 1.063 and 1.361 and 1.094

**Q.** What about the “GLGB_HUMAN, abundance normalised to mean of vehicle replicates (replicate values)” value [3] of the same molecule?
**A.** 1.046 (2×) and 1.279 and 1.081

**Q.** And the “Phosphorylation of SYK, HS1 and PLCγ2” value [4]?
**A.** completely blocked the phosphorylation

**Q.** What about the “Fold enrichment over vehicle” value ([5]; kinase AAK1, listed as WEL028) of the same molecule?
**A.** 3.3495 and 3.6735 and 3.6065

**Q.** And the “Fold enrichment over vehicle” value ([5]; kinase ADK, listed as WEL028)?
**A.** 39.5823 and 41.6357 and 46.5527

**Q.** What about the “Fold enrichment over vehicle” value ([5]; kinase ADPGK, listed as WEL028) of the same molecule?
**A.** 12.3077 and 12.2613 and 11.9417

**Q.** And the “Fold enrichment over vehicle” value ([5]; kinase FES, listed as WEL028)?
**A.** 22.028 and 25.2257 and 24.928

**Q.** What about the “Fold enrichment over vehicle” value ([5]; kinase GAK, listed as WEL028) of the same molecule?
**A.** 3.33 and 3.818 and 4.1575

**Q.** What about the “Fold enrichment over vehicle” value ([5]; kinase MAP2K1, listed as WEL028) of the same molecule?
**A.** 13.264 and 14.0967 and 13.9564

**Q.** And the “Fold enrichment over vehicle” value ([5]; kinase MAP2K2, listed as WEL028)?
**A.** 80.3522 and 87.7266 and 86.7656

**Q.** And the “Fold enrichment over vehicle” value ([5]; kinase MAP2K3, listed as WEL028)?
**A.** 5.469 and 5.758 and 4.817

**Q.** What about the “Fold enrichment over vehicle” value ([5]; kinase MAP2K5, listed as WEL028) of the same molecule?
**A.** 5.504 and 5.554 and 5.974

**Q.** And the “Fold enrichment over vehicle” value ([5]; kinase MAP2K7, listed as WEL028)?
**A.** 3.408 and 3.829 and 3.445

**Q.** And the “Fold enrichment over vehicle” value ([5]; kinase MAP3K7, listed as WEL028)?
**A.** 2.976 and 1.828 and 3.058

**Q.** And the “Fold enrichment over vehicle” value ([5]; kinase MAPK1, listed as WEL028)?
**A.** 95.4964 and 98.9035 and 99.2992

**Q.** What about the “Fold enrichment over vehicle” value ([5]; kinase MAPK3, listed as WEL028) of the same molecule?
**A.** 3.4335 and 3.699 and 3.773

**Q.** And the “Fold enrichment over vehicle” value ([5]; kinase MAPK4, listed as WEL028)?
**A.** 3.385 and 3.931 and 3.135

**Q.** What about the “Fold enrichment over vehicle” value ([5]; kinase MAPKAPK5) of the same molecule?
**A.** 0

**Q.** What about the “Fold enrichment over vehicle” value ([5]; kinase MLKL, listed as WEL028) of the same molecule?
**A.** 4.914 and 5.604 and 4.99

**Q.** What about the “Fold enrichment over vehicle” value ([5]; kinase NME1, listed as WEL028) of the same molecule?
**A.** 2.1032 and 2.165 and 2.026

**Q.** What about the “Fold enrichment over vehicle” value ([5]; kinase PFKL, listed as WEL028) of the same molecule?
**A.** 52.2098 and 54.8514 and 51.9201

**Q.** What about the “Fold enrichment over vehicle” value ([5]; kinase PFKP, listed as WEL028) of the same molecule?
**A.** 20.548 and 20.448 and 22.286

**Q.** And the “Fold enrichment over vehicle” value ([5]; kinase PGK1, listed as WEL028)?
**A.** 4.232 and 5.12 and 4.346

**Q.** What about the “Fold enrichment over vehicle” value ([5]; kinase PKM, listed as WEL028) of the same molecule?
**A.** 3.385 and 2.872 and 3.819

**Q.** And the “Fold enrichment over vehicle” value ([5]; kinase RPS6KA1, listed as WEL028)?
**A.** 8.736 and 6.8169 and 8.606

**Q.** What about the “Fold enrichment over vehicle” value ([5]; kinase RPS6KA3, listed as WEL028) of the same molecule?
**A.** 2.396 and 3.236 and 2.894

**Q.** And the “Fold enrichment over vehicle” value [6]?
**A.** 1.184 and 1.221 and 1.084

**Q.** What about the “Fold enrichment over vehicle” value [7] of the same molecule?
**A.** 0.030
